PubChem BioAssay (NCATS)
Where “and” joins values, the source holds several entries; their conditions need not be identical. Identical values can stand only once. Inconclusive results, whose numbers are uncertain, are shown with a selection of clear calls. For some assays here: A potency beside an inconclusive call is a rough fit, not a confirmed value. Calls of active or inactive are those of the source. Calls come from the whole dose curve; as a rule, active = well fitted curve in the direction sought with a large enough effect; inconclusive = small, poorly fitted or top-dose-only effect, or another doubt; inactive = no such curve, though single readings can be large; an effect the other way counts as inactive or inconclusive.

Assays:
[1] = Viability qHTS for spleen associated tyrosine kinase inhibitor (SYKi) naive MV4-11 cells (AID 1963823); conditions: MV4-11 AML viability, CellTiter-Glo luminescence, 72 h; viability (% of control): at 45 µM (top of the series); note: nearly all actives have a fitted effect of over 40% in size
Summary of the method: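 qHTS, SYK inhibitor-naive MV4-11; 500 cells/well; 72 hr compound exposure, 37 C; CellTiter-Glo added, 10 min RT; luminescence read.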

[2] = Viability qHTS for spleen associated tyrosine kinase inhibitor (SYKi) drug resistant MV4-11 cells (AID 1963824); note: nearly all actives have a fitted effect of over 35% in size
Summary of the method: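 CellTiter-Glo luminescence, read 10 min after reagent addition, reports viability after a 72 hr compound exposure. Cells are an MV4-11 line made resistant to SYK inhibition, seeded at 500 per well onto compound-containing plates.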

[3] = Quantitative highthroughput screen to assess conditional lethalithy of NOMO1 cells grown in RPMI1640 with untreated serum (RPMI+s) (AID 1963876); conditions: NOMO1 AML cells in RPMI+serum, CellTiter-Glo viability, 48 h; viability: at 45.8 µM (top of the series); note: nearly all actives have a fitted effect of over 35% in size;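 for Viability: 100% = DMSO wells and 0% = empty wells without cells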
Summary of the method: (§1)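 Each medium arm—HPLM with 10% dialyzed FBS, or RPMI1640 with 5 mM glucose and 10% untreated or dialyzed FBS—was screened against an 11-point, 3-fold compound titration for 48 h at 37 °C, with CellTiter-Glo luminescence as endpoint.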

[4] = Quantitative highthroughput screen to assess conditional lethalithy of NOMO1 cells grown in RPMI1640 with dialyzed fetal bovine serum (RPMI+ds) (AID 1963877); note: nearly all actives have a fitted effect of over 30% in size
Summary of the method: as §1

[5] = Quantitative highthroughput screen to assess conditional lethalithy of NOMO1 cells grown in Human Plasma-Like Medium with dialyzed fetal bovine serum (HPLM+ds) (AID 1963878); conditions: NOMO1 AML cells in HPLM+ds, CellTiter-Glo viability, 48 h; viability: at 45.8 µM (top of the series); note: nearly all actives have a fitted effect of over 35% in size;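 for Viability: 100% = DMSO wells and 0% = empty wells on each plate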
Summary of the method: as §1

[6] = Quantitative highthroughput screen to assess conditional lethalithy of P12 Ichikawa cells grown in Human Plasma-Like Medium with dialyzed fetal bovine serum (HPLM+ds) (AID 1963879); conditions: Potency: viability; note: nearly all actives have a fitted effect of over 35% in size
Summary of the method: as §1

[7] = Quantitative highthroughput screen to assess conditional lethalithy of P12 Ichikawa cells grown in RPMI1640 with dialyzed fetal bovine serum (RPMI+ds) (AID 1963880); conditions: Potency: P12-Ichikawa viability; note: nearly all actives have a fitted effect of over 35% in size
Summary of the method: as §1

[8] = Quantitative highthroughput screen to assess conditional lethalithy of P12 Ichikawa cells grown in RPMI1640 with untreated serum (RPMI+s) (AID 1963881); conditions: Potency: viability; note: nearly all actives have a fitted effect of over 35% in size
Summary of the method: as §1

[9] = Quantitative highthroughput screen to assess conditional lethalithy of SEM cells grown in Human Plasma-Like Medium with dialyzed fetal bovine serum (HPLM+ds) (AID 1963882); note: nearly all actives have a fitted effect of over 35% in size
Summary of the method: as §1

[10] = Quantitative highthroughput screen to assess conditional lethalithy of SEM cells grown in RPMI1640 with unreated serum (RPMI+s) (AID 1963883); conditions: SEM B-ALL cells, CellTiter-Glo viability, 48 h; viability: at 45.8 µM (top of the series); note: nearly all actives have a fitted effect of over 35% in size
Summary of the method: as §1

[11] = Quantitative highthroughput screen to assess conditional lethalithy of SEM cells grown in RPMI1640 with dialyzed fetal bovine serum (RPMI+ds) (AID 1963884); conditions: SEM B-ALL cells, RPMI+dialyzed FBS, CellTiter-Glo viability, 48 h; viability: at 45.8 µM (top of the series); note: nearly all actives have a fitted effect of over 35% in size
Summary of the method: as §1

[12] = Cellular viability qHTS for adrenocortical cancer (ACC) cell line SW-13 (AID 1963989); conditions: SW-13 ACC cells viability, CellTiter-Glo, 48 h; activity (max response): stronger effect = lower value; note: nearly all actives have a fitted effect of over 65% in size
Summary of the method: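 48 h treatment, SW-13 in ITS/DMEM serum-free; doses up to 46 uM; readout CellTiter-Glo luminescence; curve fit four-parameter logistic.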

[13] = Cellular viability qHTS for adrenocortical cancer (ACC) cell line NCI-H295R (AID 1963990); conditions: CellTiter-Glo ATP luminescence, 48 h; activity change, negative = viability loss: at 46.1 µM (top of the series); note: nearly all actives have a fitted effect of over 60% in size;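 for activity change, negative = viability loss: 0% = DMSO only wells and -100% = full killing with cytotoxic reference compound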
Summary of the method: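 Compound titrations (up to 46 uM final) are applied to NCI-H295R cultures for 48 h at 37C. Viable cell number is estimated by CellTiter-Glo signal, normalised to DMSO and doxorubicin controls.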
Potency is the fitted concentration of half-maximal effect; tags give direction and shape of the fitted curve.

| SMILES | Potency [1] | Potency [2] | Potency [3] | Potency [4] | Potency [5] | Potency [6] | Potency [7] | Potency [8] | Potency [9] | Potency [10] | Potency [11] | Potency [12] | Potency [13] | viability [5] |
| --- | --- | --- | --- | --- | --- | --- | --- | --- | --- | --- | --- | --- | --- | --- |
| Cc1ccc(S(=O)(=O)Nc2cc(Cl)ccc2C(=O)Nc2nc(-c3ccccc3)cs2)cc1 | inconclusive: 372 nM [cytotoxic, full curve, poor fit] | inconclusive: 372 nM [cytotoxic, full curve] | inconclusive: 4.18 µM [cytotoxic, partial curve, poor fit] | inconclusive: 26.4 µM [cytotoxic, single point] | inconclusive: 37.2 µM [cytotoxic, single point] | inconclusive: 37.2 µM [cytotoxic, single point] | inconclusive: 26.4 µM [cytotoxic, single point] | inconclusive: 29.6 µM [cytotoxic, single point] | inconclusive: 37.2 µM [cytotoxic, single point] | inconclusive: 37.2 µM [cytotoxic, single point] | inconclusive: 37.2 µM [cytotoxic, single point] | inconclusive: 35.5 µM [cytotoxic, single point] |  |  |
| C[C@@H]1COCCN1c1cc(=O)n2c(n1)N(Cc1cncc(Cl)c1)[C@H](C(F)(F)F)CC2 | active: 6.51 µM and inconclusive: 23.5 µM [cytotoxic, single point] | inconclusive: 16600 nM [cytotoxic, partial curve] | inconclusive: 16.6 µM [cytotoxic, partial curve] | inconclusive: 7.41 µM [cytotoxic, partial curve] | inconclusive: 11.7 µM [cytotoxic, full curve] | inconclusive: 9.33 µM [cytotoxic, full curve] | active: 9.33 µM | active: 9.33 µM | inconclusive: 11.7 µM [cytotoxic, partial curve] | inconclusive: 6.6 µM [cytotoxic, partial curve] | inconclusive: 8.31 µM [cytotoxic, full curve] |  |  |  |
| COc1c(OCCCN2CCOCC2)ccc2c3n(c(=NC(=O)c4cnc(N)nc4)nc12)CCN3 | active: 47.3 nM and active: 53.9 nM | active: 37.6 nM and active: 241 nM | inconclusive: 0.512 µM [cytotoxic, full curve] | inconclusive: 0.0724 µM [cytotoxic, full curve] | inconclusive: 0.102 µM [cytotoxic, full curve] | active: 0.182 µM | inconclusive: 0.323 µM [cytotoxic, full curve] | inconclusive: 0.323 µM [cytotoxic, full curve] | inconclusive: 1.15 µM [cytotoxic, partial curve] | active: 2.04 µM | inconclusive: 0.724 µM [cytotoxic, partial curve] | inconclusive: 0.531 µM [cytotoxic, full curve] | active: 0.237 µM |  |
| C=CC(=O)Nc1cccc(Oc2nc(Nc3ccc(N4CCN(C)CC4)cc3OC)ncc2Cl)c1 | active: 1.64 µM and active: 1.66 µM | active: 2.06 µM and active: 2.95 µM | inactive | inconclusive: 23.5 µM [cytotoxic, single point] | inconclusive: 7.43 µM [cytotoxic, partial curve] | inconclusive: 20.9 µM [cytotoxic, single point] | inconclusive: 16.6 µM [cytotoxic, partial curve] | inconclusive: 7.43 µM [cytotoxic, partial curve] | inconclusive: 3.32 µM [cytotoxic, full curve] |  | inconclusive: 1.48 µM [cytotoxic, full curve] | active: 8.91 µM |  |  |
| Cc1ccc(S(=O)(=O)OCC(=O)Nc2ccc(C(=O)O)c(O)c2)cc1 | inactive | inactive | inactive | inconclusive: 0.0833 µM [rising, full curve, poor fit] |  | active: 23.5 µM | inconclusive: 33.2 µM [cytotoxic, single point] | inconclusive: 37.2 µM [cytotoxic, single point] | inconclusive: 37.2 µM [cytotoxic, single point] | active: 16.6 µM | inconclusive: 20.9 µM [cytotoxic, partial curve] |  | inactive | inconclusive: 59% [cytotoxic] |
